In PubChem BioAssay AID938 (National Center for Advancing Translational Sciences (NCATS), 2007):
Among all 73,000 compounds or so, about 1,800 (2.5%) were called active. Roughly 13% stayed inconclusive and do not appear here. Calls follow the shape of the dose curve; as a rule, active = well fitted activation curve with a large enough effect; inconclusive = small, poorly fitted or top-dose-only effect; inactive = no such curve, though single readings can be large or run the other way. The list shows a part of the results, in another mix than the full data. Some compounds were tested as several samples or in several runs, with calls that do not always agree.

Assay: qHTS Assay for Agonists of the Thyroid Stimulating Hormone Receptor: Activators of Intracellular cAMP Concentrations in Parental HEK 293; also: nearly all actives have a fitted effect of over 55% in size; as to activation: % of control where 0% means no effect
Conditions: parental HEK293 CNG cAMP sensor, membrane potential fluorescence; series mostly up to 57.1 µM; activation: at the top concentration
Method in brief: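 Parental HEK 293 cells stably expressing a modified CNG channel (no TSHR) report cAMP rise as membrane depolarization. Membrane potential dye with 100 uM RO 20-1724 was loaded for 60 min at room temperature, then compound added for 30 min; fluorescence read at 590 nm.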
Potency is read from the fitted curve at half-maximal effect.

Row | Structure (SMILES) | Potency | activation
1 | CN1CCC[C@@H]1CCO[C@](C)(c1ccccc1)c1ccc(Cl)cc1 | inactive | –
2 | CCc1nc(OCc2ccco2)c2sc3nc4c(cc3c2n1)COC(C)(C)C4 | – | inactive: 59.5%
3 | CCOC(=O)N/N=C1/C[C@@H](O)[C@@H](O)[C@@H]2[C@@H]3C(=O)N(C(C)(C)C)C(=O)[C@H]3CC[C@@H]12 | – | inactive: 0.469% [at 11.4 µM]
4 | CCc1oc2ccccc2c1C(=O)c1cc(Br)c(O)c(Br)c1 | – | inactive: 44.3% [at 25.6 µM]
5 | CCC(C)(C)n1nnnc1C(c1ccc(C)cc1)N1CCCC1 (centres undefined) | active: 25.1 µM | –
6 | CC(C)c1cc(C(F)(F)F)nc(NNc2nc(C(C)C)cc(C(F)(F)F)n2)n1 | active: 5.01 µM | –
7 | COc1ccccc1N1CCN(C[C@@H](O)COc2cccc3ccccc23)CC1 | inactive | –
8 | COC(=O)C1=C(C)NC(C)=C([N+](=O)[O-])[C@@H]1c1ccccc1C(F)(F)F | – | inactive: -21.1%
9 | O=C(CSc1nnc(-c2ccccn2)n1Cc1ccco1)c1ccc(Cl)cc1 | active: 25.1 µM | –
10 | NC(=O)c1cccc([N+](=O)[O-])c1 | – | inactive: -11.1%
11 | CN(C)c1ccc(-c2nc(NCCN3CCOCC3)c3ccccc3n2)cc1 | – | inactive: -98.9%
12 | CCOCCCn1c(C)nc2c(c1=O)c1nc3ccccc3nc1n2CCC1=CCCCC1 | active: 20 µM | –
13 | N#Cc1cccc(C(c2nnnn2CCc2ccccc2)N2CCN(C3CCCCC3)CC2)c1 (centres undefined) | – | inactive: -38%
14 | CCCn1nnc(NC(=O)COc2ccccc2Cl)n1 | – | inactive: 9.41%
15 | O=C(c1ccco1)N1CCN(S(=O)(=O)c2ccc(Oc3ccccc3)cc2)CC1 | active: 20 µM | –
16 | COCc1nc2ccccc2n1Cc1ccc(Br)cc1 | – | inactive: 35.8%
17 | O=C1C[C@@H](O)[C@@H](O)[C@H]2[C@@H]3C(=O)N(Cc4ccccc4)C(=O)[C@@H]3CC[C@H]12 | – | inactive: -6.38% [at 11.4 µM]
18 | C=CC(=O)CC | – | inactive: -19.3%
19 | CC(=O)N1CCN(c2ccccc2NC(=O)c2cc(Br)ccc2Cl)CC1 | active: 31.6 µM | –
20 | Cc1cc(Nc2cccc(F)c2)nc(-c2ccccc2O)n1 | – | inactive: -39.5%
21 | CN(C)CCCn1cc(C2=C(c3c[nH]c4ccccc34)C(=O)NC2=O)c2ccccc21 | – | inactive: -52.9%
22 | COc1ccccc1C(=O)Nc1ccc(N2CCN(Cc3ccccc3)CC2)cc1 | – | inactive: -66.2%
23 | COC(=O)[C@@H]1[C@@H]2C[C@H]3c4[nH]c5cc(OC)ccc5c4CCN3C[C@@H]2C[C@H](OC(=O)c2cc(OC)c(OC)c(OC)c2)[C@H]1OC | – | inactive: -14.6% [at 25.6 µM]
24 | COc1cc2ccccc2cc1C(=O)Nc1ccc(N2CCN(C)CC2)cc1 | – | inactive: -40.2%
25 | Nc1ncnc2c1ncn2[C@@H]1O[C@@H](CO)[C@H](O)[C@H]1O | – | inactive: 6.49% [at 25.6 µM]

Row | Structure (SMILES) | Potency | activation
26 | O=C(CSc1nnc(-c2ccc(Br)o2)n1Cc1ccccc1)c1ccccc1F | active: 20 µM | –
27 | COC(=O)c1[nH]c2ccc(Br)cc2c1NC(=O)CN1CCN(C2CCCCC2)CC1 | – | inactive: -109%
28 | Cc1ccc(Cl)cc1N1CCN(Cc2nnnn2C2CCCCC2)CC1 | active: 12.6 µM | –
29 | Cc1ccc(C(=O)Nc2ccccc2C(=O)NC2CCCCC2)cc1S(=O)(=O)N1CCOCC1 | active: 15.8 µM | –
30 | CCN1CCN(c2nc3ccccc3nc2C(C#N)C(=O)OC2CCCCC2)CC1 (centres undefined) | – | inactive: -52.7%
31 | CCOC(=O)c1c(NC(=O)CSc2nnc(Cc3csc(N)n3)n2C)sc(C)c1C | – | inactive: 0.369%
32 | CCCCCCc1ccc(OCC(=O)O)cc1OCC(=O)O | – | inactive: 5.07%
33 | CCC1CCCCN1CC(=O)Nc1cc(C)nn1-c1nc(C)cc(C)n1 (centres undefined) | active: 25.1 µM | –
34 | CCOC(=O)CNc1nnc(SCC(=O)OCC)[nH]c1=O | – | inactive: -40.6%
35 | Cc1ccc(-c2nc3nc4ccccc4nc3n2Cc2ccco2)cc1 | active: 25.1 µM | –
36 | O=C1C(SCCO)=C(SCCO)C(=O)c2ccccc21 | – | inactive: -36.6%
37 | NC(=O)NCC12CC3CC(CC(C3)C1)C2 | – | inactive: 2.33%
38 | Cc1cccc2cc(C#N)c(N3CCN(C)CC3)nc12 | active: 15.8 µM | –
39 | COC(=O)c1cc(COc2ccc3oc(C)c(C(=O)OC)c3c2)c(C)o1 | active: 15.8 µM | –
40 | CNc1nc(-c2ccc3c(c2)OCO3)nc2ccccc12 | – | inactive: -38.6%
41 | CCOC(=O)c1c(C)n(OCc2ccccc2)c2ccc3nonc3c12 | active: 10 µM | –
42 | CN(C)CC[C@H](c1ccc(Cl)cc1)c1ccccn1 | – | inactive: 6.08% [at 25.6 µM]
43 | COc1cccc(/C(O)=C2/C(=O)C(=O)N(c3cc(C)on3)C2c2cccs2)c1 (centres undefined) | – | inactive: 7.12%
44 | O=C(CCc1ccccc1)Nc1ncn[nH]1 | – | inactive: 17.5%
45 | Cc1ccc(CNc2ncc(-c3ccc4c(c3)OCO4)n2C)cc1 | – | inactive: -87.1%
46 | N[C@H]1CCN(O)C1=O | – | inactive: 1.77%
47 | COc1cccc(-c2nc(NCc3ccccc3)c3ccccc3n2)c1 | active: 31.6 µM | –
48 | O=c1c2cccnc2[nH]c(=S)n1CCCN1CCN(c2ccc(F)cc2)CC1 | – | inactive: -45.7%
49 | CN(C)c1ccc(-c2nc(-n3ccnc3)c3ccccc3n2)cc1 | – | inactive: -30.2%
